# Test results from the supplement of paper PMC11876631.
# Residue numbers refer to the chain shown, from its start. Numbers in names are those of the source. ± gives the standard deviation of the averaged measurements. Laboratory Escherichia coli strains with one amino-acid change in an essential protein, pooled on minimal glucose agar with carbenicillin or gentamicin at twice the control MIC (plus kanamycin and chloramphenicol for the plasmids), 48 h. Fold change of barcode share against drug-free plates; higher = less susceptible. Active = above 20 in both replicates (the paper's putatively resistant). '<' = one read or none on drug, '>' = one read or none on a drug-free plate. Shares are relative, so most strains fall below 1 when a few take over. Listed are strains with at least 15 reads on both drug-free plates, and hits; most hits rest on fewer reference reads. Replicate rank correlation about 0.5. Edits are read from barcodes.
# B1: acpS L6A (protein)
# chain: MAILGAGTDIVEIARIEAVIARSGDRLARRVLSDNEWAIWKTHHQPVRFLAKRFAVKEAAAKAFGTGIRNGLAFNQFEVFNDELGKPRLRLWGEALKLAEKLGVANMHVTLADERHYACATVIIES
# B2: cysS L387Q (protein)
# chain: MLKIFNTLTRQKEEFKPIHAGEVGMYVCGITVYDLCHIGHGRTFVAFDVVARYLRFLGYKLKYVRNITDIDDKIIKRANENGESFVAMVDRMIAEMHKDFDALNILRPDMEPRATHHIAEIIELTEQLIAKGHAYVADNGDVMFDVPTDPTYGVLSRQDLDQLQAGARVDVVDDKRNPMDFVLWKMSKEGEPSWPSPWGAGRPGWHIECSAMNCKQLGNHFDIHGGGSDLMFPHHENEIAQSTCAHDGQYVNYWMHSGMVMVDREKMSKSLGNFFTVRDVLKYYDAETVRYFLMSGHYRSQLNYSEENLKQARAALERLYTALRGTDKTVAPAGGEAFEARFIEAMDDDFNTPEAYSVLFDMAREVNRLKAEDMAAANAMASHLRKQSAVLGLLEQEPEAFLQSGAQADDSEVAEIEALIQQRLDARKAKDWAAADAARDRLNEMGIVLEDGPQGTTWRRK
# B3: cysS L391A (protein)
# chain: B2 chain with Q387L, L391A
# B4: cysS M96A (protein)
# chain: B2 chain with M96A, Q387L
# B5: cysS L293A (protein)
# chain: B2 chain with L293A, Q387L
# B6: cysS L293W (protein)
# chain: B2 chain with L293W, Q387L
# B7: cysS L391W (protein)
# chain: B2 chain with Q387L, L391W
# B8: cysS L293D (protein)
# chain: B2 chain with L293D, Q387L
# B9: cysS M96Q (protein)
# chain: B2 chain with M96Q, Q387L
# B10: cysS L387D (protein)
# chain: B2 chain with Q387D
# B11: cysS L391P (protein)
# chain: B2 chain with Q387L, L391P
# B12: cysS L391Q (protein)
# chain: B2 chain with Q387L, L391Q
# Target: Escherichia coli (laboratory strain)
# Assay: barcode share on antibiotic plates over drug-free plates; higher = less susceptible
# Procedure: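 A pool of E. coli strains, each edited to carry one amino-acid change in an essential protein, was grown for 48 h on minimal glucose agar with or without antibiotic; strain barcodes were sequenced; mean of two replicates.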
# [1] = antibiotic: carbenicillin, 2× MIC (3.1 µg/mL)
# [2] = antibiotic: gentamicin, 2× MIC (MIC 0.45 µg/mL)
protein,measurement,setting,value
B1,fold change of barcode share,[1],0.314 ± 0.08
same,fold change of barcode share,[2],0.0741 ± 0.1
B2,fold change of barcode share,[1],0.677 ± 0.56
same,fold change of barcode share,[2],< 0.0108
B3,fold change of barcode share,[1],0.387 ± 0.018
same,fold change of barcode share,[2],0.00865 ± 0.0075
B4,fold change of barcode share,[1],0.349 ± 0.1
same,fold change of barcode share,[2],0.0273 ± 0.017
B5,fold change of barcode share,[1],0.342 ± 0.043
same,fold change of barcode share,[2],0.00308 ± 0.0018
B6,fold change of barcode share,[1],0.389 ± 0.14
same,fold change of barcode share,[2],0.00394 ± 0.002
B7,fold change of barcode share,[1],0.335 ± 0.11
B8,fold change of barcode share,[1],0.83 ± 0.49
B9,fold change of barcode share,[1],1.29 ± 0.69
B10,fold change of barcode share,[1],0.347 ± 0.029
B11,fold change of barcode share,[1],0.392 ± 0.057
B12,fold change of barcode share,[1],0.337 ± 0.25
same,fold change of barcode share,[2],< 0.00832
